# Reference: the supplement of paper PMC8728848
# The list shows a part of the results.
# Key:
# Assay in all cases: glycan array binding signal (z-score within array); higher = stronger binding
# Settings in all cases: glycan notation: IUPAC condensed, linker removed
# Neu5Ac(a2-3)Gal = target: Neu5Ac(a2-3)Gal
# Summary of the method: (§1)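 Columns mapping to the same glycan were averaged after glycan names were converted to IUPAC-condensed notation. The data come from 3228 arrays in the Consortium for Functional Glycomics database, limited to those with an available protein sequence. Binding is reported as a within-array Z-score averaged across arrays of one protein sequence and across linkers.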
# [1] = target: Neu5Ac(a2-3)Gal(b1-3)GalNAc
# Summary of the method: as §1
# [2] = target: Neu5Ac(a2-3)Gal(b1-3)GalNAc(b1-3)Gal(a1-4)Gal(b1-4)Glc
# Summary of the method: as §1
# [3] = target: Neu5Ac(a2-3)Gal(b1-3)GalNAc(b1-4)[Neu5Ac(a2-3)]Gal(b1-4)Glc
# Summary of the method: as §1
# [4] = target: Neu5Ac(a2-3)Gal(b1-3)GalNAc(b1-4)[Neu5Ac(a2-8)Neu5Ac(a2-3)]Gal(b1-4)Glc
# Summary of the method: as §1
# [5] = target: Neu5Ac(a2-3)Gal(b1-3)GalNAc6S
# Summary of the method: as §1
# [6] = target: Neu5Ac(a2-3)Gal(b1-3)GlcNAc
# Summary of the method: as §1
# [7] = target: Neu5Ac(a2-3)Gal(b1-3)GlcNAc(b1-2)Man
# Summary of the method: as §1
# [8] = target: Neu5Ac(a2-3)Gal(b1-3)GlcNAc(b1-2)Man(a1-3)[GlcNAc(b1-4)][Neu5Ac(a2-3)Gal(b1-3)GlcNAc(b1-2)Man(a1-6)]Man(b1-4)GlcNAc(b1-4)GlcNAc
# Summary of the method: as §1
# [9] = target: Neu5Ac(a2-3)Gal(b1-3)GlcNAc(b1-2)Man(a1-3)[Neu5Ac(a2-3)Gal(b1-3)GlcNAc(b1-2)Man(a1-6)]Man(b1-4)GlcNAc(b1-4)GlcNAc
# Summary of the method: as §1
# [10] = target: Neu5Ac(a2-3)Gal(b1-3)GlcNAc(b1-3)Gal(b1-3)GlcNAc
# Summary of the method: as §1
# [11] = target: Neu5Ac(a2-3)Gal(b1-3)GlcNAc(b1-3)Gal(b1-4)GlcNAc
# Summary of the method: as §1
# [12] = target: Neu5Ac(a2-3)Gal(b1-3)GlcNAc(b1-3)GalNAc
# Summary of the method: as §1
# [13] = target: Neu5Ac(a2-3)Gal(b1-3)GlcNAc(b1-4)Gal(b1-4)Glc
# Summary of the method: as §1
# [14] = target: Neu5Ac(a2-3)Gal(b1-3)GlcNAc(b1-6)GalNAc
# Summary of the method: as §1
# [15] = target: Neu5Ac(a2-3)Gal(b1-3)GlcNAc6S
# Summary of the method: as §1
# [16] = target: Neu5Ac(a2-3)Gal(b1-3)[Fuc(a1-4)]GlcNAc
# Summary of the method: as §1
# [17] = target: Neu5Ac(a2-3)Gal(b1-3)[Fuc(a1-4)]GlcNAc(b1-3)Gal(b1-3)[Fuc(a1-4)]GlcNAc
# Summary of the method: as §1
# [18] = target: Neu5Ac(a2-3)Gal(b1-3)[Fuc(a1-4)]GlcNAc(b1-3)Gal(b1-4)[Fuc(a1-3)]GlcNAc
# Summary of the method: as §1
# [19] = target: Neu5Ac(a2-3)Gal(b1-3)[GlcNAc(b1-6)]GalNAc
# Summary of the method: as §1
# [20] = target: Neu5Ac(a2-3)Gal(b1-3)[Neu5Ac(a2-6)]GalNAc
# Summary of the method: as §1
# [21] = target: Neu5Ac(a2-3)Gal(b1-3)[Neu5Ac(a2-6)]GlcNAc(b1-3)[Fuc(a1-3)[Gal(b1-4)]GlcNAc(b1-6)]Gal(b1-4)Glc
# Summary of the method: as §1
# [22] = target: Neu5Ac(a2-3)Gal(b1-3)]Neu5Ac(a2-3)Gal(b1-4)]GlcNAc
# Summary of the method: as §1
# Neu5Ac(a2-3)Gal(b1-4)Glc = target: Neu5Ac(a2-3)Gal(b1-4)Glc
# Summary of the method: as §1
# [23] = target: Neu5Ac(a2-3)Gal(b1-4)GlcNAc
# Summary of the method: as §1
# [24] = target: Neu5Ac(a2-3)Gal(b1-4)GlcNAc(b1-2)Man
# Summary of the method: as §1
# [25] = target: Neu5Ac(a2-3)Gal(b1-4)GlcNAc(b1-2)Man(a1-3)[GlcNAc(b1-4)][Neu5Ac(a2-3)Gal(b1-4)GlcNAc(b1-2)Man(a1-6)]Man(b1-4)GlcNAc(b1-4)GlcNAc
# Summary of the method: as §1
# [26] = target: Neu5Ac(a2-3)Gal(b1-4)GlcNAc(b1-2)Man(a1-3)[Neu5Ac(a2-3)Gal(b1-4)GlcNAc(b1-2)Man(a1-6)]Man(b1-4)GlcNAc(b1-4)GlcNAc
# Summary of the method: as §1
# [27] = target: Neu5Ac(a2-3)Gal(b1-4)GlcNAc(b1-2)Man(a1-3)[Neu5Ac(a2-3)Gal(b1-4)GlcNAc(b1-2)Man(a1-6)]Man(b1-4)GlcNAc(b1-4)[Fuc(a1-6)]GlcNAc
# Summary of the method: as §1
# [28] = target: Neu5Ac(a2-3)Gal(b1-4)GlcNAc(b1-2)Man(a1-3)[Neu5Ac(a2-6)Gal(b1-4)GlcNAc(b1-2)Man(a1-6)]Man(b1-4)GlcNAc(b1-4)GlcNAc
# Summary of the method: as §1
# [29] = target: Neu5Ac(a2-3)Gal(b1-4)GlcNAc(b1-2)[Neu5Ac(a2-3)Gal(b1-4)GlcNAc(b1-4)]Man(a1-3)[GlcNAc(b1-4)][Neu5Ac(a2-3)Gal(b1-4)GlcNAc(b1-2)[Neu5Ac(a2-3)Gal(b1-4)GlcNAc(b1-6)]Man(a1-6)]Man(b1-4)GlcNAc(b1-4)GlcNAc
# Summary of the method: as §1
# [30] = target: Neu5Ac(a2-3)Gal(b1-4)GlcNAc(b1-2)[Neu5Ac(a2-3)Gal(b1-4)GlcNAc(b1-4)]Man(a1-3)[GlcNAc(b1-4)][Neu5Ac(a2-3)Gal(b1-4)GlcNAc(b1-4)Man(a1-6)]Man(b1-4)GlcNAc(b1-4)GlcNAc
# Summary of the method: as §1
# [31] = target: Neu5Ac(a2-3)Gal(b1-4)GlcNAc(b1-2)[Neu5Ac(a2-3)Gal(b1-4)GlcNAc(b1-6)]Man(a1-6)[Neu5Ac(a2-3)Gal(b1-4)GlcNAc(b1-2)Man(a1-3)]Man(b1-4)GlcNAc(b1-4)GlcNAc
# Summary of the method: as §1
# [32] = target: Neu5Ac(a2-3)Gal(b1-4)GlcNAc(b1-2)[Neu5Ac(a2-3)Gal(b1-4)GlcNAc(b1-6)]Man(a1-6)[Neu5Ac(a2-3)Gal(b1-4)GlcNAc(b1-2)Man(a1-3)][GlcNAc(b1-4)]Man(b1-4)GlcNAc(b1-4)GlcNAc
# Summary of the method: as §1
# [33] = target: Neu5Ac(a2-3)Gal(b1-4)GlcNAc(b1-3)Gal
# Summary of the method: as §1
# [34] = target: Neu5Ac(a2-3)Gal(b1-4)GlcNAc(b1-3)Gal(b1-3)GlcNAc
# Summary of the method: as §1
# [35] = target: Neu5Ac(a2-3)Gal(b1-4)GlcNAc(b1-3)Gal(b1-4)GlcNAc
# Summary of the method: as §1
# [36] = target: Neu5Ac(a2-3)Gal(b1-4)GlcNAc(b1-3)Gal(b1-4)GlcNAc(b1-2)Man(a1-3)[Neu5Ac(a2-3)Gal(b1-4)GlcNAc(b1-3)Gal(b1-4)GlcNAc(b1-2)Man(a1-6)]Man(b1-4)GlcNAc(b1-4)GlcNAc
# Summary of the method: as §1
# [37] = target: Neu5Ac(a2-3)Gal(b1-4)GlcNAc(b1-3)Gal(b1-4)GlcNAc(b1-3)Gal(b1-4)GlcNAc
# Summary of the method: as §1
# [38] = target: Neu5Ac(a2-3)Gal(b1-4)GlcNAc(b1-3)Gal(b1-4)GlcNAc(b1-3)Gal(b1-4)GlcNAc(b1-2)Man(a1-3)[Neu5Ac(a2-3)Gal(b1-4)GlcNAc(b1-3)Gal(b1-4)GlcNAc(b1-3)Gal(b1-4)GlcNAc(b1-2)Man(a1-6)]GalNAc
# Summary of the method: as §1
# [39] = target: Neu5Ac(a2-3)Gal(b1-4)GlcNAc(b1-3)Gal(b1-4)GlcNAc(b1-3)GalNAc
# Summary of the method: as §1
# [40] = target: Neu5Ac(a2-3)Gal(b1-4)GlcNAc(b1-3)Gal(b1-4)GlcNAc(b1-3)[Neu5Ac(a2-3)Gal(b1-4)GlcNAc(b1-3)Gal(b1-4)GlcNAc(b1-6)]GalNAc
# Summary of the method: as §1
# [41] = target: Neu5Ac(a2-3)Gal(b1-4)GlcNAc(b1-3)Gal(b1-4)GlcNAc(b1-6)[Gal(b1-3)]GalNAc
# Summary of the method: as §1
# [42] = target: Neu5Ac(a2-3)Gal(b1-4)GlcNAc(b1-3)Gal(b1-4)[Fuc(a1-3)]GlcNAc
# Summary of the method: as §1
# [43] = target: Neu5Ac(a2-3)Gal(b1-4)GlcNAc(b1-3)GalNAc
# Summary of the method: as §1
binder,measurement,setting,value
CpGal16 (Clavelina picta) (protein) MAKMITNYVGKRIECIMVATDMMSTVFSLASATGDLPFYINFRQRENSIVMNTRVHGKWQYEKSQSSGGMNFYEPFRLVVEVRPSVFKVTVSTMGEEDGITFNLQYSQITIKPDEIVAMHLGYCNLRSELLVTDL,glycan array binding signal (z-score),Neu5Ac(a2-3)Gal,-0.234
same,glycan array binding signal (z-score),[1],-0.425
same,glycan array binding signal (z-score),[2],-0.317
same,glycan array binding signal (z-score),[3],-0.411
same,glycan array binding signal (z-score),[4],-0.405
same,glycan array binding signal (z-score),[5],-0.352
same,glycan array binding signal (z-score),[6],-0.409
same,glycan array binding signal (z-score),[7],-0.384
same,glycan array binding signal (z-score),[8],-0.246
same,glycan array binding signal (z-score),[9],-0.338
same,glycan array binding signal (z-score),[10],-0.378
same,glycan array binding signal (z-score),[11],-0.42
same,glycan array binding signal (z-score),[12],-0.327
same,glycan array binding signal (z-score),[13],-0.455
same,glycan array binding signal (z-score),[14],-0.383
same,glycan array binding signal (z-score),[15],-0.322
same,glycan array binding signal (z-score),[16],-0.375
same,glycan array binding signal (z-score),[17],-0.467
same,glycan array binding signal (z-score),[18],-0.273
same,glycan array binding signal (z-score),[19],-0.388
same,glycan array binding signal (z-score),[20],-0.303
same,glycan array binding signal (z-score),[21],-0.357
same,glycan array binding signal (z-score),[22],-0.418
same,glycan array binding signal (z-score),Neu5Ac(a2-3)Gal(b1-4)Glc,-0.205
same,glycan array binding signal (z-score),[23],-0.378
same,glycan array binding signal (z-score),[24],0.081
same,glycan array binding signal (z-score),[25],-0.472
same,glycan array binding signal (z-score),[26],-0.342
same,glycan array binding signal (z-score),[27],-0.245
same,glycan array binding signal (z-score),[28],-0.368
same,glycan array binding signal (z-score),[29],-0.483
same,glycan array binding signal (z-score),[30],-0.448
same,glycan array binding signal (z-score),[31],-0.211
same,glycan array binding signal (z-score),[32],-0.443
same,glycan array binding signal (z-score),[33],-0.387
same,glycan array binding signal (z-score),[34],-0.491
same,glycan array binding signal (z-score),[35],-0.401
same,glycan array binding signal (z-score),[36],-0.159
same,glycan array binding signal (z-score),[37],-0.408
same,glycan array binding signal (z-score),[38],0.222
same,glycan array binding signal (z-score),[39],-0.446
same,glycan array binding signal (z-score),[40],-0.317
same,glycan array binding signal (z-score),[41],-0.28
same,glycan array binding signal (z-score),[42],-0.293
same,glycan array binding signal (z-score),[43],-0.476
